The campaign covered roughly 310,000 compounds. About 14,000 (4.5%) showed an effect of 50% or more. The effect is printed as a negative number. This is one part of the list.
Molecular target: human ether-à-go-go-related gene (hERG) potassium channel (human, UniProt Q12809)
Test: primary screen, population patch clamp on CHO cells stably expressing hERG
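Further: peak tail current of the secondary pulse compared with the same well before compound.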

human ether-à-go-go-related gene (hERG) potassium channel, sequence (Q12809 whole entry, looked up): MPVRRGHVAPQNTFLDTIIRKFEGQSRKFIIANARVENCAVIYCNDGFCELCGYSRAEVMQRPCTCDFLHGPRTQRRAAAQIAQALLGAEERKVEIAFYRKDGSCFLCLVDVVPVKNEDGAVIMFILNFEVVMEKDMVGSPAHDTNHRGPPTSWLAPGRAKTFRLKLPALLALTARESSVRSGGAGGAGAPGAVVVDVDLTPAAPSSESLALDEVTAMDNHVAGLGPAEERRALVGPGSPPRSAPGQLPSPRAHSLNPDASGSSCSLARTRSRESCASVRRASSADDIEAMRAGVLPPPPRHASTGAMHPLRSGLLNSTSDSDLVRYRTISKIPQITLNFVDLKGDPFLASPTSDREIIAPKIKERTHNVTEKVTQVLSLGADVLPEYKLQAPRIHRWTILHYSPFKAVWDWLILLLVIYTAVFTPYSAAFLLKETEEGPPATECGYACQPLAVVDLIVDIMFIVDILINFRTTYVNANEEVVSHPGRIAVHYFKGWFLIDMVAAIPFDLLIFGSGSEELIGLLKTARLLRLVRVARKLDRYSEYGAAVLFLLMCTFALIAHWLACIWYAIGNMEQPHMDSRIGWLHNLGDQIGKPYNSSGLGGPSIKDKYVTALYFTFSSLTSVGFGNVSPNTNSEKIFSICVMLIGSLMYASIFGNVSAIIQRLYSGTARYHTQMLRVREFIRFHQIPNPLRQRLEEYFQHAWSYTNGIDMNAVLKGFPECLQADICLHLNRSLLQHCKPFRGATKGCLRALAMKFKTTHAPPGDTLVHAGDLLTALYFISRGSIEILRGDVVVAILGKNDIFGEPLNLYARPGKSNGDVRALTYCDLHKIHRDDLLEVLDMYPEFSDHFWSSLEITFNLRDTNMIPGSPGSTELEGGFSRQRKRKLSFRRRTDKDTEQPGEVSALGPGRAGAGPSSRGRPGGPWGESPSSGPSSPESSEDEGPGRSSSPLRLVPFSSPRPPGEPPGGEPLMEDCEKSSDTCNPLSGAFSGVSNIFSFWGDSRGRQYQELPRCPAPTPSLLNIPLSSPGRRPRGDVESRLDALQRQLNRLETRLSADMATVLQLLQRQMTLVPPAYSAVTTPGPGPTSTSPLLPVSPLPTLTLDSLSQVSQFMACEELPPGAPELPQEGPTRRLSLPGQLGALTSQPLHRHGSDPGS

| Structure (SMILES) | hERG current change (%, negative = inhibition) at 10uM |
| --- | --- |
| CCc1ccc(NC(=S)NC2CCN(Cc3ccccc3)CC2)cc1 | -36.9% |
| CCN1CC(CN(C)Cc2nc(-c3cccs3)no2)CC1=O (stereo not shown) | 3.65% |
| COc1cc(/C=C/C(=O)OCC(=O)NCCc2ccccc2)ccc1OC(F)F | 5.85% |
| COc1ccc(C(CNc2ccc(C(F)(F)F)cn2)N(C)C)cc1OC (stereo not shown) | -32.2% |
| CCOC(=O)CNC(=O)N1CCCC(N(C)CCc2ccccc2)C1 (stereo not shown) | -8.25% |
| Cn1c(SCc2ccc(Br)cc2)nnc1-c1ccccn1 | -19.4% |
| Nc1ncnc(N2CCOCC2)c1N | -4.16% |
| CC(=O)NC12CC3CC(C1)CC(C(=O)N(C)Cc1cccc(Cl)c1Cl)(C3)C2 | -25.3% |
| CCOC(=O)c1ccc(NC(=O)C2CC(=O)N(c3ccc4c(c3)OCCO4)C2)cc1 (stereo not shown) | 10.7% |
| CC1CCCCN1C(=O)CSc1nnc(-c2ccco2)o1 (stereo not shown) | 2.08% |
| NC(=O)NCc1ccc(F)cc1 | 11.8% |
| Cc1cc(NC(=O)CCN2C(=O)C3C4CCC(C4)C3C2=O)c(C)cc1Br (stereo not shown) | -17.6% |
| Nc1nc(-c2ccc3c(c2)CCCC3)cs1 | -0.274% |
| COCCNC(=S)c1ccc(OC)cc1 | -6.68% |
| CCCc1ccc(-c2ccc(-c3noc(-c4ccncc4)n3)cc2)nc1 | -5.98% |
| Cc1c(Cl)cccc1NC(=O)CSc1nc2c(c(=O)[nH]1)CCCC2 | 15.1% |
| CCOC(=O)c1cc(COc2cc(Cl)cc(Cl)c2)on1 | 12.8% |
| CCC1=NN(C(=O)Cc2ccc(OC)cc2)C(O)(C(F)(F)F)C1 (stereo not shown) | -6.51% |
| COc1ccc(N=Nc2[nH]c3ccc(C)cc3c2O)cc1 | 18.9% |
| Cc1ccc(S(=O)(=O)N(C)CC(=O)Nc2ccc(C)cn2)cc1 | -14.5% |
| COc1ccc(/C=N/NC2=NCCCCC2)c(OC)c1.Cl | 20.3% |
| COCCNC(=O)[C@H](C)[C@H]1C[C@]1(C)[C@H](NC(=O)OCc1ccccc1)c1ccccc1 | -7.83% |
| Cc1cc(NC(=O)CCC(=O)N(CC(=O)NC2CCCC2)c2ccccc2)no1 | 7.27% |

| Structure (SMILES) | hERG current change (%, negative = inhibition) at 10uM |
| --- | --- |
| CCN(CC)S(=O)(=O)c1ccc(N=Cc2c(C)c(C#N)c(=O)n(C)c2O)cc1 | 0.71% |
| CSc1nc2cc3c(cc2n1C(=O)c1ccc(C)cc1)OCCO3 | 17.1% |
| COc1ccc(CCN(Cc2cccs2)S(=O)(=O)c2ccc(S(=O)(=O)N3CCC(C)CC3)cc2)cc1OC | 16.7% |
| O=S(=O)(Nc1ccccc1Cl)c1cccc2nsnc12 | -5.19% |
| C=CCSc1nc(N)c(C(=O)Nc2ccccc2C)cc1C(N)=O | 6.27% |
| O=C(NNc1ccccc1)C(=O)N1CCCCC1 | 8.69% |
| CCCNC(=O)c1ccc(C2SCC(=O)N2Cc2ccccc2)cc1 (stereo not shown) | -5.51% |
| CCOc1ccc(C2NC(=O)c3n[nH]c(C)c32)cc1 (stereo not shown) | 1.15% |
| Nc1nonc1C(=O)N/N=C\c1cc2c(cc1Cl)OCO2 | 12.2% |
| O=C(Nc1cccnc1)c1cc(-c2ccc(Cl)c(Cl)c2)on1 | 19.7% |
| COc1cccc(-n2ccnc2SCC(=O)Nc2cc(OC)ccc2OC)c1 | -10.5% |
| COc1ccc(S(=O)(=O)NCCSCc2ccco2)cc1 | -12.6% |
| CC(C)CNC(=O)C(=O)Nc1ccc2c(c1)N(S(=O)(=O)c1cccs1)CCC2 | -1.04% |
| O=S(=O)(CS(=O)(=O)c1ccc(Cl)cc1)c1ccc(Cl)cc1 | 11.5% |
| Cc1cccc(N2C(=O)CC(Cn3nc(C)cc3C)C2=O)c1 (stereo not shown) | 15.8% |
| CCOc1ccccc1C1C(C#N)=C(SCC(=O)OC)NC(=O)C1C(=O)OC (stereo not shown) | -20.1% |
| CCN(CC(=O)Nc1ccc2c(c1)OCCO2)C(=O)CSCC(=O)Nc1ccc(C)cc1 | -31.1% |
| Cc1ccc(C(C[N+](=O)[O-])c2c(C)cc3ccccn23)cc1 (stereo not shown) | 3.84% |
| CCN(CC)C(=O)c1sc2nc(-c3ccncc3)[nH]c(=O)c2c1C | 7.11% |
| O=C(NCCc1ccncc1)Nc1ccc(Cl)c(Cl)c1 | -38.4% |
| N#Cc1c(NCc2ccccc2)ccnc1Cl | -27.3% |
| Cn1cc(S(=O)(=O)N2CCN(Cc3ccccc3)CC2)c(=O)n(C)c1=O | -13% |
| COc1ccc2[nH]c(C)c(C(=O)CN3CCOCC3)c2c1 | 7.05% |

| Structure (SMILES) | hERG current change (%, negative = inhibition) at 10uM |
| --- | --- |
| c1ccc2c3c(c(CN4CCCC4)cc2c1)COC3 | -13.8% |
| NC(=O)c1ccc(-n2nnnc2SCC(=O)c2ccc(O)c(O)c2)cc1 | 28.3% |
| CCCc1cc(=O)[nH]c(SCC(=O)c2c(N)n(CC(C)C)c(=O)n(C)c2=O)n1 | -15.5% |
| CC(OC(=O)c1ccc(Cl)nc1)C(=O)Nc1ccc(S(=O)(=O)N2CCCC2)cc1 (stereo not shown) | -40.3% |
| Cc1ccccc1-c1nc2sc(-c3ccccc3)cc2c(=O)o1 | 29.9% |
| Cc1ccnn1CC(=O)N/N=C/c1cccs1 | -7.51% |
| Cc1ccc(-n2nc(CC#N)c(C#N)c2N)cc1 | 3.84% |
| COc1cc(/C=N/Nc2ccc([N+](=O)[O-])cc2S(=O)(=O)N2CCOCC2)cc(OC)c1OC | -3.33% |
| C/C(N)=C(/C#N)C(=O)CSc1cc(C)c2cc(C)cc(C)c2n1 | 2.54% |
| COC(=O)/C=C/C(=O)N1CCN(c2ccccc2C)CC1 | -2.32% |
| CCOC(=O)C1(CCOc2ccccc2)CCN(Cc2nccn2CC)CC1 | -58.2% |
| CCC1(C)Cc2c(sc3nnn(Cc4ccccc4Cl)c(=O)c23)CO1 (stereo not shown) | 13.8% |
| O=C(CCn1ccc2cc(S(=O)(=O)N3CCCC3)ccc21)NCc1ccccc1 | 1.25% |
| Cc1cc(SCC(=O)N(C)c2c(N)n(Cc3ccccc3)c(=O)[nH]c2=O)nc2ccccc12 | 31.2% |
| COC(=O)C1=C(C)N(c2ccc(C)c(C)c2)/C(=C/c2ccc(O)cc2)C1=O | -0.474% |
| COc1cccc(NC(=O)C2CCN(S(=O)(=O)c3ccc4c(c3)OCCO4)CC2)c1 | 30% |
| CC(CN1CCCCC1)OC(=O)C(C)(c1ccccc1)c1ccccc1.Cl (stereo not shown) | -52.3% |
| Cc1c(Cl)cccc1NC(=O)c1cccnc1 | 10.7% |
| Cc1ccc(NC(=O)N2Cc3ccccc3CC2C(=O)NC(C)(C)C)cc1 (stereo not shown) | 9.45% |
| COc1cccc(NC(=O)CCCNC(=O)Cn2cnc3sc(C)c(C)c3c2=O)c1 | 4.45% |
| COc1ccc(OC)c(NC(=O)Cn2cc(C=O)c3ccccc32)c1 | 19.8% |
| Cc1ccc(C)c(S(=O)(=O)N2CC(=O)N(CCc3ccccc3)C(=O)C2)c1 | 12% |
| Cc1ccc(CC2CC(=O)N(c3nc4ccccc4s3)C2=O)cc1 (stereo not shown) | 9.26% |

| Structure (SMILES) | hERG current change (%, negative = inhibition) at 10uM |
| --- | --- |
| O=C(O)CN=C(NS(=O)(=O)c1ccc(Cl)cc1)c1ccc(F)cc1 | 15.9% |
| O=C(N/C(=C/c1cccc(Br)c1)c1nc(=S)[nH][nH]1)c1ccccc1 | 9.47% |
| CCOc1ccc(C2C(C(=O)c3ccco3)=C(O)C(=O)N2CCN2CCOCC2)cc1OCC (stereo not shown) | 23.6% |
| O=c1[nH]c2ccccc2nc1Cc1ccc(Cl)cc1 | 16.2% |
| CCc1cccc(C)c1N(C(=O)Cn1c(CO)nc2ccccc21)C(C)COC (stereo not shown) | -5.89% |
| CCc1ccc(NC(=S)N(Cc2cccnc2)Cc2ccco2)cc1 | -17.2% |
| CCCCn1c(Cc2ccccc2)nnc1SCC(=O)Nc1cc(C)on1 | 0.409% |
| Cc1cc(C)c([N+](=O)[O-])cc1-c1ccc(/C=N/NC(=O)c2nonc2N)o1 | -34% |
| CCCCNC1=CC(=O)C(=O)c2ccccc21 | -38.4% |
| C=CCOc1ccc(/C=C2\SC(N)=NC2=O)cc1OC | 5.34% |
| O=C(Nc1ccc(F)c(F)c1)c1cccnc1 | 0.898% |
| O=C(NCc1cccnc1)c1c(O)c2cccc3c2n(c1=O)CCC3 | -41.6% |
| O=C1CCC(=O)N1c1ccc(S(=O)(=O)Nc2cccc(Br)c2)cc1 | 4.74% |
| Nn1c(Cc2ccccc2F)n[nH]c1=S | 46% |
| CCOC(=O)C1CCCN(C(=O)c2ccccc2[N+](=O)[O-])C1 (stereo not shown) | 12.9% |
| COc1ccc(N2C(=O)CC(NCc3cccs3)C2=O)cc1 (stereo not shown) | -2.02% |
| CCN(CC)C(=O)CN(c1cccc(C(F)(F)F)c1)S(C)(=O)=O | -9.63% |
| CCN(CC(=O)Nc1c(F)cccc1F)C(=O)C1CC1 | 3.28% |
| CC(C(=O)O)n1nc2ccccc2n1 (stereo not shown) | 21.4% |
| O=C1CC(N2CCC(c3nc4ccccc4o3)CC2)C(=O)N1c1ccc(F)cc1 (stereo not shown) | -46.3% |
| CCOC(=O)c1c(NC(=O)Cn2nc(C(=O)O)c3ccccc3c2=O)sc(CC)c1C | 42% |
| COc1ccc(Cl)cc1N(CC(=O)Nc1ccccc1SC)S(C)(=O)=O | -19.9% |

Reference: publication PMC4336329 (PLoS ONE, 2015)
